The structures appear in SMILES notation. In brackets after ≈: the same amount, converted by molar mass. Like-named read-outs stand apart in the source and are kept apart here. A value given as a limit tells only on which side of the number the result lay.

Format in all cases: cell-based
The test system of one experiment is H. influenzae. Particulars: H. influenzae 49247 Ery-S.
Another experiment has as its system S. pneumoniae.
In a further experiment the test system is S. aureus.

In the case of `CCC1OC(=O)C(C)C(=O)C(C)C(OC2OC(C)CC(N(C)C)C2O)C(C)(OC)CC(C)C(=O)C(C)C2N(CCCCCn3cc(-c4cccc(N)c4)nn3)C(=O)OC12C` (stereo not drawn) [Entry 16c], the MIC was found to be 8 µg/mL (≈ 9.51 µM) against H. influenzae and 0.25 µg/mL (≈ 0.297 µM) against S. pneumoniae (S. pneumoniae 303 Ery-R (ermB)).
`CC[C@H]1OC(=O)[C@H](C)[C@@H](OC2CC(C)(OC)C(O)C(C)O2)[C@H](C)[C@@H](OC2OC(C)CC(N(C)C)C2O)[C@@](C)(OC)C[C@@H](C)C(=O)[C@H](C)[C@H]2N(CCCCn3cc(-c4cccnc4)nn3)C(=O)O[C@]12C` (stereo partly drawn) [Entry 20b]: the MIC was 0.25 µg/mL (≈ 0.257 µM) against S. aureus (S. aureus 25923 Ery-S), “≦0.06 μg/mL” in the experiment on S. pneumoniae (S. pneumoniae 163 Ery-R (MefA)) and 1 µg/mL (≈ 1.03 µM) in the experiment with S. pneumoniae (S. pneumoniae 303 Ery-R (ermB)).
Consider `CCC1OC(=O)C(C)C(=O)C(C)C(OC2OC(C)CC(N(C)C)C2O)C(C)(OC)CC(C)C(=O)C(C)C2N(CCCn3cc(-c4ccccc4)nn3)C(=O)OC12C` (stereo not drawn) [Entry 11a], for which the values for the MIC against S. aureus (S. aureus 96:11480 Ery-R (MLSb)), in the experiment with S. aureus (S. aureus 29213 Ery-S) and against H. influenzae were 1 µg/mL (≈ 1.25 µM), 1 µg/mL (≈ 1.25 µM) and above 64 µg/mL, respectively.
With `CCC1OC(=O)C(C)C(=O)C(C)C(OC2OC(C)CC(N(C)C)C2O)C(C)(OC)CC(C)C(=O)C(C)C2N(CCCCCn3cc(-c4ccc(Br)cc4)nn3)C(=O)OC12C` (stereo not drawn) [Entry 12c], the figures for the MIC with H. influenzae and against S. pneumoniae (S. pneumoniae 303 Ery-R (ermB)) were 16 µg/mL (≈ 17.7 µM) and 1 µg/mL (≈ 1.11 µM), respectively.
In the same order, the values of `CCC1OC(=O)C(C)C(=O)C(C)C(OC2OC(C)CC(N(C)C)C2O)C(C)(OC)CC(C)C(=O)C(C)C2N(CCCCn3cc(-c4ccccn4)nn3)C(=O)OC12C` (stereo not drawn) [Entry 14b] are 4 µg/mL (≈ 4.92 µM) and at most 0.125 µg/mL.
On to `CCC1OC(=O)C(C)C(=O)C(C)C(OC2OC(C)CC(N(C)C)C2O)C(C)(OC)CC(C)C(=O)C(C)C2N(CCCCn3cc(-c4ccc(Br)cc4)nn3)C(=O)OC12C` (stereo not drawn) [Entry 12b], for which the MIC in the experiment with H. influenzae and with S. pneumoniae (S. pneumoniae 303 Ery-R (ermB)) was 8 µg/mL (≈ 8.98 µM) throughout.
Take `CC[C@H]1OC(=O)[C@H](C)[C@@H](OC2CC(C)(OC)C(O)C(C)O2)[C@H](C)[C@@H](OC2OC(C)CC(N(C)C)C2O)[C@@](C)(OC)C[C@@H](C)C(=O)[C@H](C)[C@H]2N(CCCCn3cc(-c4cccc(N)c4)nn3)C(=O)O[C@]12C` (stereo partly drawn) [Entry 20c]: the MIC in the experiment on S. aureus (S. aureus 25923 Ery-S) amounted to 1 µg/mL (≈ 1.01 µM); against S. pneumoniae (S. pneumoniae 163 Ery-R (MefA)), 0.5 µg/mL (≈ 0.506 µM); against S. pneumoniae (S. pneumoniae 303 Ery-R (ermB)), 2 µg/mL (≈ 2.03 µM).
In the same order, the values of `CC[C@H]1OC(=O)[C@H](C)[C@@H](OC2CC(C)(OC)C(O)C(C)O2)[C@H](C)[C@@H](OC2OC(C)CC(N(C)C)C2O)[C@@](C)(OC)C[C@@H](C)C(=O)[C@H](C)[C@H]2N(CCCCn3cc(Cn4nnc5ccccc54)nn3)C(=O)O[C@]12C` (stereo partly drawn) [Entry 20e] are “≦0.25 μg/mL”, 0.5 µg/mL (≈ 0.487 µM) and 2 µg/mL (≈ 1.95 µM).
In the same order, the values of `CC[C@H]1OC(=O)[C@H](C)[C@@H](OC2CC(C)(OC)C(O)C(C)O2)[C@H](C)[C@@H](OC2OC(C)CC(N(C)C)C2O)[C@@](C)(OC)C[C@@H](C)C(=O)[C@H](C)[C@H]2N(CCCCn3cc(COc4c(Cl)cccc4Cl)nn3)C(=O)O[C@]12C` (stereo partly drawn) [Entry 20d] are 1 µg/mL (≈ 0.934 µM), 0.5 µg/mL (≈ 0.467 µM) and 2 µg/mL (≈ 1.87 µM).
In the case of `CCC1OC(=O)C(C)C(=O)C(C)C(OC2OC(C)CC(N(C)C)C2O)C(C)(OC)CC(C)C(=O)C(C)C2N(CCCCn3cc(-c4cccc(N)c4)nn3)C(=O)OC12C` (stereo not drawn) [Entry 16b], the results for the MIC in the experiment on H. influenzae and against S. pneumoniae (S. pneumoniae 303 Ery-R (ermB)) were 2 µg/mL (≈ 2.42 µM) and at most 0.125 µg/mL, respectively.
On to `CC[C@H]1OC(=O)[C@H](C)[C@@H](OC2CC(C)(OC)C(O)C(C)O2)[C@H](C)[C@@H](OC2OC(C)CC(N(C)C)C2O)[C@@](C)(OC)C[C@@H](C)C(=O)[C@H](C)[C@H]2N(CCCCn3cc(-c4ccccn4)nn3)C(=O)O[C@]12C` (stereo partly drawn) [Entry 20a], for which the MIC was 0.25 µg/mL (≈ 0.257 µM) with S. aureus (S. aureus 25923 Ery-S), 0.125 µg/mL (≈ 0.128 µM) against S. pneumoniae (S. pneumoniae 163 Ery-R (MefA)) and 2 µg/mL (≈ 2.06 µM) in the experiment on S. pneumoniae (S. pneumoniae 303 Ery-R (ermB)).
Consider `CCC1OC(=O)C(C)C(=O)C(C)C(OC2OC(C)CC(N(C)C)C2O)C(C)(OC)CC(C)C(=O)C(C)C2N(CCCCCn3cc(-c4ccccn4)nn3)C(=O)OC12C` (stereo not drawn) [Entry 14c], for which the MIC in the experiment with H. influenzae came out at 64 µg/mL (≈ 77.4 µM); with S. pneumoniae (S. pneumoniae 303 Ery-R (ermB)), 0.25 µg/mL (≈ 0.302 µM).

For the origin of these results see US9901592B2 (priority 2008, dated 2018).
